From patent US20060177456A1 (published 2006)

Molecular target: T1, soluble poly-histidine-tagged Apo-2 ligand (amino acids 114-281) (UniProt P50591 114-281)
T1 chain: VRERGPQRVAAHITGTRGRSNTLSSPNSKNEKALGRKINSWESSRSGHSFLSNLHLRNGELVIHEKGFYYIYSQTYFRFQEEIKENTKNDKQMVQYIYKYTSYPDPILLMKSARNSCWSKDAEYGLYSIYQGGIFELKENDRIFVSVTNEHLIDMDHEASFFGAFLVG
Assay: affinity (FIG. 13)

B1: DR4-IgG (DR4 extracellular domain fused to the hinge and Fc region of human immunoglobulin G1 heavy chain) (Fc fusion)
chain: not shown
  Kd: 82 pM
